The text below walks through data of the antibiotic and cytotoxicity screens of Wong et al. (2023).

Some of the results follow.

The test concerns HSkMC (human skeletal muscle cells). Description: cytotoxicity call (relative viability < 0.9). The note with it: 10 µM.
With `O=c1c(O)c(-c2cc(O)c(O)c(O)c2)oc2cc(O)cc(O)c12`, the cytotoxicity call was “inactive”.

In the case of `C[C@]1(O)CC[C@@H]2C(C(=O)O)=CO[C@@H](O[C@@H]3O[C@H](COC(=O)/C=C/c4ccc(O)c(O)c4)[C@@H](O)[C@H](O)[C@H]3O)[C@@H]21`, the cytotoxicity call is “inactive”.

For `C[C@@H]1CCCCO[C@@H](CN(C)S(=O)(=O)c2cn(C)cn2)[C@H](C)CN([C@H](C)CO)C(=O)c2cc(NS(C)(=O)=O)ccc2O1`, the cytotoxicity call was “inactive”.

On to `C[C@@H]1CN([C@H](C)CO)C(=O)Cc2cc(NC(=O)Nc3cccc4ccccc34)ccc2O[C@H]1CN(C)S(=O)(=O)c1ccc(F)cc1`, for which the cytotoxicity call was “inactive”.

In the case of `CC(C)C#Cc1cnc2c(c1)C(=O)N([C@@H](C)CO)C[C@H](C)[C@@H](CN(C)C(=O)c1ccc3c(c1)OCO3)O2`, the cytotoxicity call is “inactive”.

`C[C@H]1CN([C@@H](C)CO)C(=O)c2cc(C#CCN(C)C)cnc2O[C@H]1CN(C)C(=O)c1ccc2c(c1)OCO2`: the cytotoxicity call is “inactive”.

Consider `NC[C@@H]1CC(=O)N(c2ccccc2)C1`, for which the cytotoxicity call was “inactive”.

For `COc1ccc(S(=O)(=O)Nc2ccc3c(c2)C(=O)N([C@H](C)CO)C[C@@H](C)[C@H](CN(C)S(=O)(=O)c2ccccc2)O3)cc1`, the cytotoxicity call was “inactive”.

Regarding `C[C@@H]1CCCCO[C@H](CN(C)Cc2ccc3c(c2)OCO3)[C@@H](C)CN([C@@H](C)CO)C(=O)c2cc(NS(=O)(=O)c3ccccc3)ccc2O1`, the cytotoxicity call was “inactive”.

Regarding `C[C@@H]1CCCn2cc(nn2)COCCNC1=O`, the cytotoxicity call was “inactive”.

On to `COc1ccc(NC(=O)Nc2ccc3c(c2)C(=O)N([C@H](C)CO)C[C@H](C)[C@@H](CN(C)C(=O)Nc2c(C)noc2C)OCCCC[C@@H](C)O3)cc1`, for which the cytotoxicity call was “inactive”.
